Source: PubChem BioAssay AID651820 (National Center for Advancing Translational Sciences (NCATS), 2012)
Out of some 340,000 compounds screened, about 12,000 (3.5%) were called active. This list was built around the results that the source calls inconclusive (neither active nor inactive); the mix of calls is not that of the screen. The call rests on the fitted dose curve; in most records, active means well fitted inhibition curve with a large enough effect; inconclusive means small, poorly fitted or top-dose-only effect, or another doubt; inactive means no such curve, though single readings can be large or run the other way. No potency is given beside an inconclusive call; the fits are too rough.

assay: qHTS Assay for Inhibitors of Hepatitis C Virus (HCV); conditions: Huh7.5.1 HCVcc-Cre (HCVcc is cell-culture hepatitis C virus) infection, luciferase reporter, 44 h; activity change, negative = inhibition: at 41.8 µM (top of the series) unless noted
Source text: Hepatitis C virus (HCV) infects about 200 million people in the world. Many infected people progress to chronic liver disease including cirrhosis with a risk of developing liver cancer. To date, there is no effective vaccine for hepatitis C. Current therapy based on interferon is only effective in about half of the patients and is associated with significant adverse effects. The fraction of people with HCV who can complete a successful treatment is estimated to be no more than 10 percent. Recent development of direct-acting antivirals against HCV, such as protease and polymerase inhibitors, is promising but still requires combination with peginterferon and ribavirin for maximal efficacy. In addition, these agents are associated with high rate of resistance and many have significant side effects. Due to the lack of a culture system for infectious HCV, the search for new HCV drugs has been greatly hampered. […] High-throughput screening (HTS) with an infectious HCV system would cover the complete spectrum of potentially druggable targets in all stages of HCV lifecycle, and would have more biological relevance than other cell-based assays. Moreover, targeting several key processes in the viral life cycle may not only increase antiviral efficacy; more importantly, it may also reduce the capacity of the virus to develop resistance to the compound. The goal of this project is to identify novel HCV inhibitors as new therapies for hepatitis C, using a highly sensitive and specific assay platform which is based on a HCV infectious cell culture system established in the laboratory and adapted for high-throughput HCV drug screen. NIH Chemical Genomics Center [NCGC] NIH Molecular Libraries Probe Centers Network [MLPCN] MLPCN Grant: MH095511 Assay Submitter (PI): Jake Liang, NIDDK
The assay will start with plating 1,000 cells/well in 3 µL volume and culture for 4 h. Then 23 nL of compounds from the library collection will be added to each well, followed by adding 2.5 µL of HCVcc-Cre virus (~ 0.5 moi) and further cultured for 44 h before the luciferase assay. A volume of 4.5 µL luciferase substrates will be added to each well and the plates will be incubated at room temperature for 15 min. and then read for 15 sec. for the luciferase activity
On the % scale 0 is the no-effect control and ±100 the full control effect; tags describe the fitted curve by direction and shape.

Q: For `CCCCn1nnnc1NCc1ccc(OC)c(OC)c1OC`, which Potency is on record?
A: inactive

Q: Which Potency does the source give for `CC(C)c1ccc(N2C(=O)CC(Sc3nc4ccccc4o3)C2=O)cc1` (stereo not given) here?
A: inactive

Q: For `Nc1c2c(nc3sc4c(c13)CCCCC4)CCCC2`, which Potency is on record?
A: active: 22.4 µM

Q: Which Potency does the source give for `CC(C)NOC(=O)c1ccc(Cl)cc1` here?
A: inactive

Q: For `CCCC(C(=O)OCC)P(=O)(c1ccccc1)c1ccccc1` (stereo not given), which Potency is on record?
A: inactive

Q: With `COc1ccc(CCNC(=O)c2cc3c(=O)n4ccccc4nc3n(CCCN3CCOCC3)c2=N)cc1OC` as the compound, how does the Potency read?
A: inconclusive [inhibitor, single point]

Q: For `C=CCNC(=O)c1ccc(C(=O)c2ccccc2)cc1`, which Potency is on record?
A: inactive

Q: Which Potency does the source give for `O=C(COC(=O)c1cc([N+](=O)[O-])ccc1N1CCOCC1)c1ccccc1Cl` here?
A: inconclusive [inhibitor, full curve]

Q: With `O=c1[nH]nc(Cc2ccc3ccccc3n2)c2ccccc12` as the compound, how does the Potency read?
A: inconclusive [inhibitor, partial curve]

Q: With `COc1ccccc1N1CCN(C(=O)c2ccc3c(Cl)c4c(nc3c2)CCCC4)CC1` as the compound, how does the activity change, negative = inhibition read?
A: inactive: 4.84% [at 8.37 µM]

Q: For `Cc1ccc(S(=O)(=O)N2CCCOC2CNC(=O)C(=O)NCc2ccc3c(c2)OCO3)cc1` (stereo not given), which Potency is on record?
A: inactive

Q: For `COCCNC(=O)c1sc2nc(-c3ccccc3)cn2c1C`, which Potency is on record?
A: inactive

Q: With `C=CCSc1nc2sc3c(c2c(=O)n1CC)CCC3` as the compound, how does the Potency read?
A: inconclusive [inhibitor, partial curve]

Q: With `CC1=CC(C)(C)N(C(=O)CSc2nnc(-c3ccccc3)o2)c2ccc(C)cc21` as the compound, how does the Potency read?
A: active: 11.2 µM

Q: For `Cc1cccc(N2CCN(Cc3cnc(Cl)s3)CC2C)c1` (stereo not given), which Potency is on record?
A: inactive

Q: Which Potency does the source give for `CCOc1ccc(N/C=C/C(=O)c2cc(OC)c(OC)c(OC)c2)cc1` here?
A: inconclusive [inhibitor, partial curve]

Q: With `O=S(=O)(c1cc(F)ccc1F)N1CCC2(CC1)OCCN2S(=O)(=O)c1cccs1` as the compound, how does the Potency read?
A: inactive

Q: For `Cc1cc(NC(=O)c2ccc(-c3ccccc3[N+](=O)[O-])o2)no1`, which Potency is on record?
A: inconclusive [inhibitor, single point]

Q: Which Potency does the source give for `COc1ccccc1Nc1cc(C(=O)NC2CCCC2)c2ccccc2n1` here?
A: inconclusive [inhibitor, partial curve]

Q: With `Cc1c(Cl)cccc1NC(=O)CNC(=O)CCS(=O)(=O)c1ccc(F)cc1` as the compound, how does the Potency read?
A: inactive

Q: With `O=[N+]([O-])c1ccc(N2CCN(CCOc3nonc3-c3ccccc3)CC2)c(Cl)c1` as the compound, how does the Potency read?
A: active: 6.31 µM

Q: With `Cc1cc(C)cc(OCCCOc2cccc3cccnc23)c1` as the compound, how does the Potency read?
A: inconclusive [inhibitor, single point]

Q: Which Potency does the source give for `CCOC(=O)c1cc2c(C)n(-c3ccc(OCC)cc3)c(C)c2ccc1=O` here?
A: inconclusive [inhibitor, partial curve]

Q: Which Potency does the source give for `CCOC(=O)[C@@H]1[C@H]2COc3ccc(Br)cc3[C@H]2N2C(=O)N(c3ccc(F)cc3)C(=O)[C@]12C` here?
A: inactive

Q: Which Potency does the source give for `CCn1c(C)nnc1SCC(=O)Nc1ccccc1OC` here?
A: inactive

Q: For `CC1(C)OC1(C#N)c1ccccc1` (stereo not given), which Potency is on record?
A: inactive

Q: Which Potency does the source give for `CCn1c(SCC(=O)N/N=C/C=C\c2ccccc2[N+](=O)[O-])nnc1-c1ccccc1` here?
A: inconclusive [inhibitor, single point]

Q: For `CSc1nc(NCCCO)c2c3c(sc2n1)CN(C)CC3`, which Potency is on record?
A: inconclusive [inhibitor, single point]

Q: Which Potency does the source give for `CCCCNC(=S)N(Cc1ccco1)Cc1cc2cc3c(cc2[nH]c1=O)OCCO3` here?
A: inconclusive [inhibitor, single point]

Q: With `Fc1ccc(-c2cc3nc4c(c(N5CCOCC5)n3n2)CCCC4)cc1` as the compound, how does the Potency read?
A: inconclusive [inhibitor, partial curve, poor fit]

Q: With `CCOc1ccccc1CNC(=O)CNC(=O)c1cccs1` as the compound, how does the Potency read?
A: inactive

Q: With `Cc1cc(C)nc(N2CCC(C(=O)NCc3ccco3)CC2)n1` as the compound, how does the Potency read?
A: inactive

Q: Which Potency does the source give for `OCCNc1nc(NCCC2=CCCCC2)nc(N2CCOCC2)n1` here?
A: inconclusive [inhibitor, partial curve]

Q: For `N/C(CCS(=O)(=O)c1ccc(Cl)cc1)=N\OC(=O)c1ccc(Cl)cc1`, which Potency is on record?
A: inactive

Q: For `COCCSc1nc2c(c(=O)[nH]c(=O)n2C)n1Cc1cccc(C)c1`, which Potency is on record?
A: inconclusive [inhibitor, single point]

Q: Which Potency does the source give for `CCOc1cc(C(=O)CSc2nnc(CNc3ccc(Cl)cc3)o2)ccc1NC(=O)CC` here?
A: active: 11.2 µM

Q: Which Potency does the source give for `Cc1ccccc1NC(=O)c1cccc(C(F)(F)F)c1` here?
A: inactive

Q: For `Cc1cc(Cl)c(OCCOCCN2CCCC(C)C2)c(Br)c1` (stereo not given), which Potency is on record?
A: inconclusive [inhibitor, partial curve]

Q: For `Cc1ccc(NC(=O)c2ccc(-n3cccn3)nc2)cc1`, which Potency is on record?
A: inactive

Q: Which Potency does the source give for `CCOC(=O)c1csc(N/N=C2\CCCc3ccccc32)n1` here?
A: inconclusive [inhibitor, partial curve, poor fit]

Q: With `CCOC(=O)C1=CNS(=O)(=O)NC1c1ccc(C#N)cc1` (stereo not given) as the compound, how does the Potency read?
A: inconclusive [inhibitor, single point]

Q: For `c1cncc(-c2nn3c(Cn4nnc5ccccc54)nnc3s2)c1`, which Potency is on record?
A: inactive

Q: Which Potency does the source give for `NC(=O)c1sc2nc(-c3ccccc3)ccc2c1N` here?
A: inactive

Q: Which Potency does the source give for `Cc1ccccc1-c1cc(C(=O)Nc2nc3c(s2)CCCC3)c2ccccc2n1` here?
A: inconclusive [inhibitor, full curve]

Q: Which Potency does the source give for `Cc1ccc(S(=O)(=O)N2CCN(C(=O)/C=C/c3ccccc3)CC2)cc1C` here?
A: inconclusive [inhibitor, partial curve, poor fit]

Q: With `COCCCn1c(=O)/c(=C\c2ccccc2OC(C)C)s/c1=C(/C#N)C(=O)Nc1ccc(C(=O)O)cc1` as the compound, how does the Potency read?
A: inactive

Q: With `O=C(OC1CCCCC1)c1ccc(NC(=O)c2ccco2)cc1` as the compound, how does the Potency read?
A: inconclusive [inhibitor, partial curve]

Q: Which Potency does the source give for `O=C(CSc1nnc(COc2cccc3cccnc23)o1)N1CCc2ccccc21` here?
A: active: 2.24 µM

Q: Which Potency does the source give for `CCOc1ccc2nc(NC(=O)c3ccc(OCC4CCCO4)cc3)sc2c1` (stereo not given) here?
A: active: 3.98 µM

Q: For `O=C(CN1CCCc2ccccc21)NC(=O)NC1CCCCC1`, which Potency is on record?
A: inactive

Q: With `CC(=O)Nc1ccc(-c2csc(NCCc3ccccc3)n2)cc1` as the compound, how does the Potency read?
A: inconclusive [inhibitor, single point]

Q: Which Potency does the source give for `CC1CCC(NC(=O)c2cc(S(=O)(=O)N(C)C)ccc2N2CCCC2)CC1` (stereo not given) here?
A: inactive

Q: For `Cc1ccsc1C(=O)NNC(=O)c1cccc(S(=O)(=O)N2CCCC2)c1`, which Potency is on record?
A: inactive

Q: With `CC(C)(C)C(=O)N1CCN(c2ccnc3cc(Cl)ccc23)CC1` as the compound, how does the Potency read?
A: inconclusive [inhibitor, single point]

Q: With `Cc1cccc(NC(=O)c2cc3c([nH]c4ccccc43)c(C)n2)c1C` as the compound, how does the Potency read?
A: inconclusive [inhibitor, full curve, poor fit]

Q: With `Cn1c(N)c(C(=O)COC(=O)c2ccccc2C(F)(F)F)c(=O)n(C)c1=O` as the compound, how does the Potency read?
A: inconclusive [inhibitor, single point]

Q: Which Potency does the source give for `Cc1cccc(N2CCN(C(=O)c3ccc4c(c3)OCCO4)CC2C)c1` (stereo not given) here?
A: inactive

Q: With `COc1ccccc1C(=O)Nc1ccccc1N1CCCCC1` as the compound, how does the Potency read?
A: inconclusive [inhibitor, single point]

Q: For `O=C(Cc1ccc(Br)cc1)Nc1cccc(-c2cn3c(n2)SCC3)c1`, which Potency is on record?
A: inconclusive [inhibitor, partial curve, poor fit]

Q: For `CCn1c(SCC(=O)Nc2nc3ccccc3s2)nc2c(c1=O)SC(C)C2` (stereo not given), which Potency is on record?
A: inconclusive [inhibitor, single point]

Q: With `CCC(CO)Oc1cc(NC(=O)c2cccc(Cl)c2)c2ncn(C(C)C)c2c1` (stereo not given) as the compound, how does the Potency read?
A: inconclusive [inhibitor, full curve]

Q: Which Potency does the source give for `O=C(CCN1C(=O)C2CCCCC2C1=O)Nc1nc(-c2ccccc2)cs1` (stereo not given) here?
A: inconclusive [inhibitor, single point]

Q: With `c1ccc(COc2cncc(-c3cccnc3)c2)cc1` as the compound, how does the Potency read?
A: inconclusive [inhibitor, single point]

Q: With `CC12CCC(=O)N1C(C(=O)Nc1cccc(S(=O)(=O)N3CCCCC3)c1)CS2` (stereo not given) as the compound, how does the Potency read?
A: inconclusive [inhibitor, single point]

Q: Which Potency does the source give for `Cc1ccc(NC(=O)COc2cccc(-n3cnnn3)c2)cc1[N+](=O)[O-]` here?
A: inconclusive [inhibitor, single point]

Q: Which Potency does the source give for `O=C(Nc1ccc(N2CCCC2)cc1)c1ccccc1F` here?
A: inconclusive [inhibitor, single point]

Q: With `CCOc1nc(-c2ccccc2)ccc1-c1noc(-c2ccc(OC)c(OC)c2)n1` as the compound, how does the Potency read?
A: inconclusive [inhibitor, partial curve]

Q: Which Potency does the source give for `COc1ccc([N+](=O)[O-])cc1COc1cc(C)cc2oc(=O)cc(-c3ccccc3)c12` here?
A: inconclusive [inhibitor, single point]

Q: With `COC(=O)c1ccc(COc2ccc(/C=N/Nc3nc(C)cc(=O)[nH]3)cc2)cc1` as the compound, how does the Potency read?
A: inactive

Q: Which Potency does the source give for `CC(C)Cc1nnc(NC(=O)CCC(=O)NC2CCCc3ccccc32)s1` (stereo not given) here?
A: inactive

Q: Which Potency does the source give for `COc1ccc(NC(=O)Cn2nnc(-c3ccccc3NS(=O)(=O)c3ccc(OC)cc3)n2)cc1` here?
A: active: 11.2 µM

Q: Which Potency does the source give for `Cc1sc(N/N=C/c2cccnc2)nc1-c1ccc(Cl)cc1` here?
A: inconclusive [inhibitor, partial curve]

Q: Which Potency does the source give for `Cc1cccc(C(=O)N2CCCC(CCC(=O)N3CCN(c4ccccn4)CC3)C2)c1` (stereo not given) here?
A: inactive

Q: For `CCN1CCN(S(=O)(=O)c2ccc(Cl)c(C(=O)N(C)C(c3ccccc3)c3ccccc3)c2)CC1`, which activity change, negative = inhibition is on record?
A: inconclusive: -41.6% [inhibitor]

Q: With `O=C(N/N=C/c1c[nH]c2ccccc12)c1cc2ccccc2o1` as the compound, how does the Potency read?
A: inconclusive [inhibitor, single point]
